Assay results: PMC3210812
Results are given in words; binding and its absence hold for the method and conditions named. In cells and extracts the contact can be indirect. Some entries that bind do so weakly or less than the wild type. Where a sequence is shown, tags or fusion partners need not be part of it.

Amino acid sequences for entries named in this document (tags omitted).
UniProt P22459: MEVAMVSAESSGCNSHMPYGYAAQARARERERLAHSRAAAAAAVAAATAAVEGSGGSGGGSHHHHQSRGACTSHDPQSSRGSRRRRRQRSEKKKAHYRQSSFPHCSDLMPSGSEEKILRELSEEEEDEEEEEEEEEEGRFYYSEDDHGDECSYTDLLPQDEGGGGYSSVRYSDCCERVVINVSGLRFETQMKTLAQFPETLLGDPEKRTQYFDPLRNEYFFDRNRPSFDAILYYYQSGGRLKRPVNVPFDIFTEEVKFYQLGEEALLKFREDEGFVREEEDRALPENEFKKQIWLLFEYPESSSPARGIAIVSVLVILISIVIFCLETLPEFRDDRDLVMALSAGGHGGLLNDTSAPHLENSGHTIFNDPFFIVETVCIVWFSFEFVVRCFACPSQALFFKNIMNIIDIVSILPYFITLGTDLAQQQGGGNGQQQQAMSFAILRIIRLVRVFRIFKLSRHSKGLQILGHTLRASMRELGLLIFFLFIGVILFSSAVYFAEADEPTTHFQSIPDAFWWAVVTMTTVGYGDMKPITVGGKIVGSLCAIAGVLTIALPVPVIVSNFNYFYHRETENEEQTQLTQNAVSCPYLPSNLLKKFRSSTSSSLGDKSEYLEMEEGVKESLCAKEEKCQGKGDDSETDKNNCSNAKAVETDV
UniProt Q9NQU5: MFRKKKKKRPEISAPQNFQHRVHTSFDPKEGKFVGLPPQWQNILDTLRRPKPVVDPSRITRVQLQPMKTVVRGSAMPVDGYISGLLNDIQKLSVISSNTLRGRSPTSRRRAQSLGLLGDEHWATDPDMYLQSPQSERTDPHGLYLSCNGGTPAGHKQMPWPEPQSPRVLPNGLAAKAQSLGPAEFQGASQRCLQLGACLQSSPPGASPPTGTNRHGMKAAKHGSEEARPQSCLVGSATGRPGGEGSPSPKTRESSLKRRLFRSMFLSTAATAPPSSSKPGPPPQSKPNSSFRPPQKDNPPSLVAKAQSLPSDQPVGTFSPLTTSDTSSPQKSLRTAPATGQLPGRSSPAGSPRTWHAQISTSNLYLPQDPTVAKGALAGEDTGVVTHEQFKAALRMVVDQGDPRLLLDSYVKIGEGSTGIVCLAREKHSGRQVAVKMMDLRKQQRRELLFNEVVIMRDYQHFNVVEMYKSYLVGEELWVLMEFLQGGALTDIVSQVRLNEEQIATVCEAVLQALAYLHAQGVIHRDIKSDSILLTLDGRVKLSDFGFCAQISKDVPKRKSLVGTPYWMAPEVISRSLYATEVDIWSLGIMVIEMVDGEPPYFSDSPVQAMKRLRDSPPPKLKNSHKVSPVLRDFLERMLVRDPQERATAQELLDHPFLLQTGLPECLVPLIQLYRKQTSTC
UniProt P29597: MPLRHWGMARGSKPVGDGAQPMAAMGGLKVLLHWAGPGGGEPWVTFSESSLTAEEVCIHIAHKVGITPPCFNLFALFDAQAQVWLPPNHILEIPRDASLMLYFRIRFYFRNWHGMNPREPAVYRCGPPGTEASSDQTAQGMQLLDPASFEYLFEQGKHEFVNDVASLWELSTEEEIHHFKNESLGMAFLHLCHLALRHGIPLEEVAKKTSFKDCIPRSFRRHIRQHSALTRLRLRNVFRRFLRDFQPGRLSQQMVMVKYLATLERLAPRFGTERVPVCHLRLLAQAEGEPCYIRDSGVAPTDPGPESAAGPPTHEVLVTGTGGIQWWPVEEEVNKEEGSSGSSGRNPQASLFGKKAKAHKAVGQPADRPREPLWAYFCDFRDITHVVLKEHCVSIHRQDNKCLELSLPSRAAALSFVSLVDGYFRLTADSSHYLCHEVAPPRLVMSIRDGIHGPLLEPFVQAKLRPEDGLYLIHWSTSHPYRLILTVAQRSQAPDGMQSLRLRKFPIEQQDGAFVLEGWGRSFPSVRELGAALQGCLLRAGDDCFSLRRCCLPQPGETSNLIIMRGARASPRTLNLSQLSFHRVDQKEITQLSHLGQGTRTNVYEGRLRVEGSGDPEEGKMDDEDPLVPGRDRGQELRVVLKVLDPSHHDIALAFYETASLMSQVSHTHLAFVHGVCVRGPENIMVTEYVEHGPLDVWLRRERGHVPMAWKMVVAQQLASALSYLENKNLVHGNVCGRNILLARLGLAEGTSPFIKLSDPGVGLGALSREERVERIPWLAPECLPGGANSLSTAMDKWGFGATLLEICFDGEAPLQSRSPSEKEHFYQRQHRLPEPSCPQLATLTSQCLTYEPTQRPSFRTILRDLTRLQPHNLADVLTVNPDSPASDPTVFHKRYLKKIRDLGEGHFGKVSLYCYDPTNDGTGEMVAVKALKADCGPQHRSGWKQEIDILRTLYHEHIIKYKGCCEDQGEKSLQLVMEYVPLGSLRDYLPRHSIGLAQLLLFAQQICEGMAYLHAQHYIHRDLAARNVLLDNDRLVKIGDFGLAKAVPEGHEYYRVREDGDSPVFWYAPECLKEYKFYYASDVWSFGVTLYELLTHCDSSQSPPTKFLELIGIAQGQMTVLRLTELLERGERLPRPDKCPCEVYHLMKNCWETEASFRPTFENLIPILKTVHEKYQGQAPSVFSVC

T1: GST-hLNX1 PDZ3 (aa 498–597) (human) (UniProt Q8TBB1)
T1 sequence (chain, Alexa Fluor 647 label (array experiments)): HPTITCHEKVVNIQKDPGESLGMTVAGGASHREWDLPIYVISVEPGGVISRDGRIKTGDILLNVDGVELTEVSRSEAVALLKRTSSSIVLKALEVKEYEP

T2: GST-hLNX1 PDZ2 (aa 373–466) (human) (UniProt Q8TBB1)
T2 sequence (chain, Alexa Fluor 647 label (array experiments)): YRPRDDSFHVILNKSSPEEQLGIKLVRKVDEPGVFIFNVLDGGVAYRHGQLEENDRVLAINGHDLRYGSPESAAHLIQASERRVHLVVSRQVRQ

T3: GST-hLNX1 PDZ4Δ3C (aa 630–725) (human) (UniProt Q8TBB1)
T3 sequence (chain, Alexa Fluor 647 label (array experiments)): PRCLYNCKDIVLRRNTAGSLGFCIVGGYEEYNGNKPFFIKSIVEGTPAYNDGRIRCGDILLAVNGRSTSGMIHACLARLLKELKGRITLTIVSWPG

T4: GST-hLNX1 PDZ1 (aa 222–380) (human) (UniProt Q8TBB1)
T4 sequence: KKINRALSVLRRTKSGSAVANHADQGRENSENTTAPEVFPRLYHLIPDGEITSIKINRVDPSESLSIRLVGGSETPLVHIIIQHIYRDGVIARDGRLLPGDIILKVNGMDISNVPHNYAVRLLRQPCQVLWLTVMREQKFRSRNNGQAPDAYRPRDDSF


How the values were obtained:
Experiment in all cases: pull-down; 3 ug of purified GST fusion protein on glutathione sepharose beads with 50-100 uL of transfected 293T cell lysate in PLC lysis buffer, 90 min at 4°C; anti-myc blot (Figure 5); only the target purified
[1] = target: T1, GST-hLNX1 PDZ3 (aa 498–597) (human)
[2] = target: T2, GST-hLNX1 PDZ2 (aa 373–466) (human)
[3] = target: T3, GST-hLNX1 PDZ4Δ3C (aa 630–725) (human)
[4] = target: T4, GST-hLNX1 PDZ1 (aa 222–380) (human)

binding [1] | binding [2] | binding [3] | binding [4] | Molecule
no binding | – | – | binds | Myc-tagged KCNA4 (from UniProt P22459 1-653)
no binding | binds | binds | – | Myc-tagged PAK6 (from UniProt Q9NQU5 1-681)
binds | – | – | binds | Myc-tagged PLEKHG5 (protein, UniProt O94827 1-1006) MHYDGHVRFDLPPQGSVLARNVSTRSCPPRTSPAVDLEEEEEESSVDGKGDRKSTGLKLSKKKARRRHTDDPSKECFTLKFDLNVDIETEIVPAMKKKSLGEVLLPVFERKGIALGKVDIYLDQSNTPLSLTFEAYRFGGHYLRVKAPAKPGDEGKVEQGMKDSKSLSLPILRPAGTGPPALERVDAQSRRESLDILAPGRRRKNMSEFLGEASIPGQEPPTPSSCSLPSGSSGSTNTGDSWKNRAASRFSGFFSSGPSTSAFGREVDKMEQLEGKLHTYSLFGLPRLPRGLRFDHDSWEEEYDEDEDEDNACLRLEDSWRELIDGHEKLTRRQCHQQEAVWELLHTEASYIRKLRVIINLFLCCLLNLQESGLLCEVEAERLFSNIPEIAQLHRRLWASVMAPVLEKARRTRALLQPGDFLKGFKMFGSLFKPYIRYCMEEEGCMEYMRGLLRDNDLFRAYITWAEKHPQCQRLKLSDMLAKPHQRLTKYPLLLKSVLRKTEEPRAKEAVVAMIGSVERFIHHVNACMRQRQERQRLAAVVSRIDAYEVVESSSDEVDKLLKEFLHLDLTAPIPGASPEETRQLLLEGSLRMKEGKDSKMDVYCFLFTDLLLVTKAVKKAERTRVIRPPLLVDKIVCRELRDPGSFLLIYLNEFHSAVGAYTFQASGQALCRGWVDTIYNAQNQLQQLRAQEPPGSQQPLQSLEEEEDEQEEEEEEEEEEEEGEDSGTSAASSPTIMRKSSGSPDSQHCASDGSTETLAMVVVEPGDTLSSPEFDSGPFSSQSDETSLSTTASSATPTSELLPLGPVDGRSCSMDSAYGTLSPTSLQDFVAPGPMAELVPRAPESPRVPSPPPSPRLRRRTPVQLLSCPPHLLKSKSEASLLQLLAGAGTHGTPSAPSRSLSELCLAVPAPGIRTQGSPQEAGPSWDCRGAPSPGSGPGLVGCLAGEPAGSHRKRCGDLPSGASPRVQPEPPPGVSAQHRKLTLAQLYRIRTTLLLNSTLTASEV

The remaining lines, values behind:

Molecule | binding [1] | binding [2] | binding [3] | binding [4]
Myc-tagged PKC-alpha1 (from UniProt P17252 1-672) | no binding | binds | binds | –
Myc-tagged TYK2 (from UniProt P29597 1-1187) | no binding | binds | – | –
